Reference: the supplement of paper PMC11876631
Changes are numbered by the printed parent chain. In names and notes the source's numbering stands. ± gives the standard deviation of the averaged measurements. Laboratory Escherichia coli strains with one amino-acid change in an essential protein, pooled on minimal glucose agar with carbenicillin or gentamicin at twice the control MIC (plus kanamycin and chloramphenicol for the plasmids), 48 h. Fold change of barcode share against drug-free plates; higher = less susceptible. Active = above 20 in both replicates (the paper's putatively resistant). '<' = one read or none on drug, '>' = one read or none on a drug-free plate. Shares are relative, so most strains fall below 1 when a few take over. Listed are strains with at least 15 reads on both drug-free plates, and hits; most hits rest on fewer reference reads. Replicate rank correlation about 0.5. Edits are read from barcodes.

B1: aroB L39P (protein)
chain: MERIVVTLGERSYPITIASGLFNEPASFLPLKSGEQVMPVTNETLAPLYLDKVRGVLEQAGVNVDSVILPDGEQYKSLAVLDTVFTALLQKPHGRDTTLVALGGGVVGDLTGFAAASYQRGVRFIQVPTTLLSQVDSSVGGKTAVNHPLGKNMIGAFYQPASVVVDLDCLKTLPPRELASGLAEVIKYGIILDGAFFNWLEENLDALLRLDGPAMAYCIRRCCELKAEVVAADERETGLRALLNLGHTFGHAIEAEMGYGNWLHGEAVAAGMVMAARTSERLGQFSSAETQRIITLLKRAGLPVNGPREMSAQAYLPHMLRDKKVLAGEMRLILPLAIGKSEVRSGVSHELVLNAIADCQSA
B2: aroB M38W (protein)
chain: B1 chain with M38W, P39L
B3: aroB M38Q (protein)
chain: B1 chain with M38Q, P39L
B4: lolA M112A (protein)
chain: MKKIAITCALLSSLVASSVWADAASDLKSRLDKVSSFHASFTQKVTDGSGAAVQEGQGDLWVKRPNLFNWHMTQPDESILVSDGKTLWFYNPFVEQATATWLKDATGNTPFALIARNQSSDWQQYNIKQNGDDFVLTPKASNGNLKQFTINVGRDGTIHQFSAVEQDDQRSSYQLKSQQNGAVDAAKFTFTPPQGVTVDDQRK
B5: lolA F37Q (protein)
chain: B4 chain with F37Q, A112M
B6: lolA I114A (protein)
chain: B4 chain with A112M, I114A
B7: lolA F37A (protein)
chain: B4 chain with F37A, A112M
B8: lolA M112D (protein)
chain: B4 chain with A112D
B9: lolA M112Q (protein)
chain: B4 chain with A112Q
B10: lolA F37W (protein)
chain: B4 chain with F37W, A112M
B11: lolA L113Q (protein)
chain: B4 chain with A112M, L113Q
B12: lolA V152A (protein)
chain: B4 chain with A112M, V152A
B13: lolA L113A (protein)
chain: B4 chain with A112M, L113A
B14: lolA F161A (protein)
chain: B4 chain with A112M, F161A
B15: lolA M112W (protein)
chain: B4 chain with A112W
B16: lolB I122A (protein)
chain: MPLPDFRLIRLLPLAALVLTACSVTTPKGPGKSPDSPQWRQHQQDVRNLNQYQTRGAFAYISDQQKVYARFFWQQTGQDRYRLLLTNPLGSTELELNAQPGNVQLVDNKGQRYTADDAEEMAGKLTGMPIPLNSLRQWILGLPGDATDYKLDDQYRLSEITYSQNGKNWKVVYGGYDTKTQPAMPANMELTDGGQRIKLKMDNWIVK
B17: lolB I122Q (protein)
chain: B16 chain with A122Q
B18: lolB I122W (protein)
chain: B16 chain with A122W

Biological target: Escherichia coli (laboratory strain)
Assay: barcode share on antibiotic plates over drug-free plates; higher = less susceptible
Settings: antibiotic: carbenicillin; 2× MIC (3.1 µg/mL)
Description: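 A pool of E. coli strains, each edited to carry one amino-acid change in an essential protein, was grown for 48 h on minimal glucose agar with or without antibiotic; strain barcodes were sequenced; mean of two replicates.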

Protein | fold change of barcode share
B1 | 0.577 ± 0.039
B2 | 0.672 ± 0.4
B3 | 0.869 ± 0.16
B4 | 0.161 ± 0.076
B5 | 0.6 ± 0.46
B6 | 0.255 ± 0.17
B7 | 0.403 ± 0.33
B8 | 1.56 ± 1.6
B9 | 0.221 ± 0.023
B10 | 0.315 ± 0.12
B11 | 0.339 ± 0.045
B12 | 0.301 ± 0.15
B13 | 0.283 ± 0.12
B14 | 0.497 ± 0.042
B15 | 0.198 ± 0.055
B16 | 0.328 ± 0.12
B17 | 0.285 ± 0.016
B18 | 0.295 ± 0.022

Same assay, conditions: antibiotic: gentamicin; 2× MIC (MIC 0.45 µg/mL)

Protein | fold change of barcode share
B1 | < 0.00986
B2 | < 0.0119
B3 | < 0.0149
B4 | < 0.0219
B5 | < 0.00611
B6 | < 0.0128
B7 | < 0.015
B9 | 0.0188 ± 0.0053
B10 | 0.0169 ± 0.0093
B12 | 0.00533 ± 0.0029
B14 | 0.00639 ± 0.0025
B15 | < 0.0131
B16 | < 0.00305
B17 | < 0.00268
B18 | 0.00348 ± 0.0017
